Measured values as given in patent US10463688B2, “Nylon-3 polymers active against Clostridium difficile” (priority 2015, dated 2019).
≈ marks a conversion by molar mass, not a printed value.

Test system: C. difficile vegetative cells (R20291 strain)
Assay: microbe, parasite or virus in culture
Details: Clostridioides difficile, 24 h, read-out: MIC, minimum inhibitory concentration for vegetative cell growth

How did the MIC turn out when CN[C@H](CC(C)C)C(=O)N[C@H]1C(=O)N[C@@H](CC(N)=O)C(=O)N[C@H]2C(=O)N[C@H]3C(=O)N[C@H](C(=O)N[C@H](C(=O)O)c4cc(O)cc(O)c4-c4cc3ccc4O)[C@H](O)c3ccc(c(Cl)c3)Oc3cc2cc(c3O[C@@H]2O[C@H](CO)[C@@H](O)[C@H](O)[C@H]2O[C@H]2C[C@](C)(N)[C@H](O)[C@H](C)O2)Oc2ccc(cc2Cl)[C@H]1O [vancomycin] was run?
The MIC was 0.5 µg/mL (≈ 0.345 µM).
